{
  "source": "PubChem BioAssay AID2147",
  "about": "(National Center for Advancing Translational Sciences (NCATS), 2009)",
  "note": "Screen size: about 230,000 compounds; about 3,600 (1.6%) were called active. Inconclusive results, whose numbers are uncertain, are shown with a selection of clear calls. The call rests on the fitted dose curve; in most records, active means well fitted inhibition curve with a large enough effect (not every such curve was filed as active); inconclusive means small, poorly fitted or top-dose-only effect, or another doubt; inactive means no such curve, though single readings can be large or run the other way. Where the call is inconclusive, the potency comes from a doubtful curve fit. Further: nearly all actives have a fitted effect of over 50% in size. Potency means the concentration at half of the fitted maximal effect; tags describe the fitted curve by direction and shape.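 Wherever activity change, negative = inhibition is given: 0% = wells with enzyme and -100% = buffer wells without enzyme.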",
  "data": [
    {"biological_target": "Lysine-specific demethylase 4E (Homo sapiens) (UniProt B2RXH2)", "sequence (B2RXH2 whole entry, looked up, the tested form may be a part)": "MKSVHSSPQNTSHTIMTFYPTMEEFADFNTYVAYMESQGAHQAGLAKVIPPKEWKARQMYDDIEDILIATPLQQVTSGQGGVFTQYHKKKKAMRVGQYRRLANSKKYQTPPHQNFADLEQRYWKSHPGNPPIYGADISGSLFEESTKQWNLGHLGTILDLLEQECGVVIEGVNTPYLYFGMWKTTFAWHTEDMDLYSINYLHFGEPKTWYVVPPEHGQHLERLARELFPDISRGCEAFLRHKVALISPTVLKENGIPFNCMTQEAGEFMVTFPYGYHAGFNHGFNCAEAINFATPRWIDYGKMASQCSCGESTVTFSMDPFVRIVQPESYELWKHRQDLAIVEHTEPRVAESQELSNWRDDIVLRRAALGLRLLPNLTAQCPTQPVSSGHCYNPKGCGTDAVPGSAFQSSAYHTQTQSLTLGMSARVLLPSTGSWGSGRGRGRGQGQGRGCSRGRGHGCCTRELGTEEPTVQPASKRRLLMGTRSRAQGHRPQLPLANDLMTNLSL", "assay": "qHTS Assay for Inhibitors of Human Jumonji Domain Containing 2E (JMJD2E)", "details": "JMJD2E catalytic domain, FDH-coupled NADH fluorescence (FDH is formaldehyde dehydrogenase); series mostly up to 57.1 µM; activity change, negative = inhibition: at the top concentration", "values": [
      {"compound": "COCC(=O)OCc1cc2cccc(C)c2[nH]c1=O", "Potency": "inconclusive: 35.5 µM [inhibitor, single point]"},
      {"compound": "Cc1cc(/C=C2\\C(=N)N3N=C(C(C)C)SC3=NC2=O)c(C)n1Cc1ccccc1", "activity change, negative = inhibition": "inactive: 18.4%"},
      {"compound": "COc1cccc(NC(=S)NNC(=O)C(C)n2nc(C)c([N+](=O)[O-])c2C)c1", "note": "(stereo not given)", "activity change, negative = inhibition": "inactive: 11.6%"},
      {"compound": "COc1ccc(-c2cn3c(C)c(C(=O)Nc4ccncc4)sc3n2)cc1", "Potency": "inconclusive: 35.5 µM [inhibitor, single point]"},
      {"compound": "Cc1ccc(N2CC(C(=O)NCc3ccc4c(c3)OCO4)CC2=O)cc1C", "note": "(stereo not given)", "activity change, negative = inhibition": "inactive: 2.77%"},
      {"compound": "Cc1cc(-c2nnc(-c3cc4ccccc4oc3=O)o2)c(C)n1-c1ccccc1", "Potency": "inconclusive: 28.2 µM [inhibitor, single point]"},
      {"compound": "C/[N+]([O-])=C\\C1C(=O)CCCC1=O", "activity change, negative = inhibition": "inactive: -5.23%"},
      {"compound": "COC(=O)c1ccccc1NC(=O)CNc1cc(OC)c(OC)cc1C", "Potency": "inconclusive: 35.5 µM [inhibitor, single point]"},
      {"compound": "COc1ccc(-c2cn3cc(C)ccc3n2)cc1F", "Potency": "inconclusive: 31.6 µM [inhibitor, partial curve]"},
      {"compound": "Cc1cc(C(C)C)n2c(nc3ccccc32)c1C#N", "Potency": "inconclusive: 10 µM [inhibitor, partial curve]"},
      {"compound": "NC(=O)N=Nc1c(O)[nH]c2ccc([N+](=O)[O-])cc12", "activity change, negative = inhibition": "inactive: -26.5%"},
      {"compound": "CC(=O)c1cc2c(cc1NC(=O)CSc1nc3ccccc3[nH]1)OCO2", "Potency": "inconclusive: 35.5 µM [inhibitor, single point]"},
      {"compound": "O=C(c1ccc(CSc2nc3ccncc3[nH]2)cc1)N1CCCCCC1", "activity change, negative = inhibition": "inactive: 9.07%"},
      {"compound": "O=C(COC(=O)c1ccc2ccccc2c1O)NCC(F)(F)F", "Potency": "inconclusive: 25.1 µM [inhibitor, partial curve]"},
      {"compound": "OC1CCCN(CC(O)COC(c2ccccc2)c2ccccc2)C1", "note": "(stereo not given)", "Potency": "inconclusive: 17.8 µM [inhibitor, single point]"},
      {"compound": "O=C(Nc1nc2ccc(F)cc2s1)c1ccccn1", "activity change, negative = inhibition": "inactive: -2.44%"},
      {"compound": "Nc1ccc2c(C(F)(F)F)cc(=O)oc2c1", "Potency": "inconclusive: 31.6 µM [inhibitor, partial curve]"},
      {"compound": "COC(=O)C(C)Sc1ccc2nnc(-c3ccccc3)n2n1", "note": "(stereo not given)", "Potency": "inconclusive: 28.2 µM [inhibitor, single point]"},
      {"compound": "O=C(CN1CCN(C/C=C/c2ccccc2)CC1)Nc1cc([N+](=O)[O-])ccc1Cl", "activity change, negative = inhibition": "inactive: 4.63%"},
      {"compound": "CCN(CC)C(=O)c1oc2ccc(S(=O)(=O)N3CCCCCC3)cc2c1C", "activity change, negative = inhibition": "inactive: 5.38%"},
      {"compound": "CNC(=S)N=Nc1c(O)[nH]c2ccc(C(C)C)cc12", "activity change, negative = inhibition": "inactive: 5.95%"},
      {"compound": "Cc1cccc(CNc2ncnc3ccc(-c4c(C)noc4C)cc23)c1", "Potency": "inconclusive: 39.8 µM [inhibitor, single point]"},
      {"compound": "COCCNC(=O)c1onc(CSc2ccc(F)cc2)c1C(=O)NCCOC", "activity change, negative = inhibition": "inactive: 2.56%"},
      {"compound": "O=C(O)CCc1nn2c3ccccc3n(Cc3ccccc3F)c2nc1=O", "Potency": "inconclusive: 31.6 µM [inhibitor, partial curve]"},
      {"compound": "CC1Cc2ccccc2N1C(=S)Nc1cccc(S(=O)(=O)N(C)C)c1", "note": "(stereo not given)", "activity change, negative = inhibition": "inactive: -11.3%"},
      {"compound": "CS(=O)(=O)N(Cc1ccc(F)cc1)Cc1nc2ccccc2c(=O)[nH]1", "activity change, negative = inhibition": "inactive: 9.68%"},
      {"compound": "O=C(O)c1cnn(-c2nc(-c3ccc(F)cc3)cs2)c1C(F)(F)F", "Potency": "inconclusive: 25.1 µM [inhibitor, partial curve]"},
      {"compound": "Cc1cccc(-n2cc(CN3CCN(c4ccccn4)CC3)c(-c3cccc(F)c3)n2)c1", "Potency": "inconclusive: 39.8 µM [inhibitor, single point]"},
      {"compound": "CCN(CC)CC(=O)NCc1cc(-c2ccc(OC)cc2)no1", "activity change, negative = inhibition": "inactive: 0.553%"},
      {"compound": "CCN1C=CC2=C(C#N)C(N)C(C#N)(C#N)C(c3ccccc3C(F)(F)F)C2C1", "note": "(stereo not given)", "Potency": "inconclusive: 25.1 µM [inhibitor, partial curve]"},
      {"compound": "CC(Oc1ccc(Cl)cc1Cl)C(=O)NN=C1CCN(C)CC1", "note": "(stereo not given)", "activity change, negative = inhibition": "inactive: -7.84%"},
      {"compound": "Cn1nc(C(F)(F)F)c(C#N)c1N1CCN(c2ccc(F)cc2)CC1", "activity change, negative = inhibition": "inactive: -7.12%"},
      {"compound": "CCSc1nnc(-c2cccs2)o1", "Potency": "inconclusive: 28.2 µM [inhibitor, single point]"},
      {"compound": "CCCC1CCC(=C(C#N)C(N)=O)CC1", "note": "(stereo not given)", "activity change, negative = inhibition": "inactive: 18.3%"},
      {"compound": "Cc1ccc(C(=O)NNC(=O)C2CCN(c3nc(C)cc(C)n3)CC2)cc1", "Potency": "inconclusive: 31.6 µM [inhibitor, partial curve]"},
      {"compound": "CCOC(=O)c1sc2ncn(/N=C/c3cccnc3)c(=O)c2c1C", "activity change, negative = inhibition": "inactive: -1.3%"},
      {"compound": "CCOC(=O)N1CCC(NC(=O)c2cc3c(-c4ccccc4F)nn(C)c3s2)CC1", "Potency": "inconclusive: 28.2 µM [inhibitor, partial curve]"},
      {"compound": "C[C@H](O)C(=O)C1=Nc2c(nc(N)[nH]c2=O)NC1", "Potency": "inconclusive: 28.2 µM [inhibitor, partial curve]"},
      {"compound": "Cn1cccc1/C=N/NC(=O)c1ccn[nH]1", "activity change, negative = inhibition": "inactive: -12.3%"},
      {"compound": "CCOC(=O)c1ccc(N2C(=O)CC(N3CCN(C/C=C/c4ccccc4)CC3)C2=O)cc1", "note": "(stereo not given)", "activity change, negative = inhibition": "inactive: 2.47%"},
      {"compound": "Nc1ccc2nc3c(=O)n(C4CCCCC4)c(=O)[nH]c3nc2c1", "Potency": "inconclusive: 3.16 µM [inhibitor, full curve]"},
      {"compound": "Cc1ccc(-c2sc(-c3cccnc3)nc2CC(=O)O)cc1", "Potency": "inconclusive: 28.2 µM [inhibitor, partial curve]"},
      {"compound": "CCn1c(=NC(=O)c2ccc(S(=O)(=O)N(C)C)cc2)sc2cccc(OC)c21", "Potency": "inconclusive: 28.2 µM [inhibitor, partial curve]"},
      {"compound": "Cc1ccc(OCCC(=O)OCC(=O)NCCc2ccccc2)cc1", "Potency": "inconclusive: 3.55 µM [inhibitor, single point]"},
      {"compound": "CC(=O)Nc1nc(N)n(-c2ccccc2)n1", "activity change, negative = inhibition": "inactive: -3.66%"},
      {"compound": "CN(C)c1ccc(C(=O)Nc2ccc(S(=O)(=O)NC3=NCCCCC3)cc2)cc1", "Potency": "inconclusive: 35.5 µM [inhibitor, single point]"},
      {"compound": "Cc1ccc(NCC(=O)N/N=C/c2cccn2C)cc1", "activity change, negative = inhibition": "inactive: -13.8%"},
      {"compound": "CCN(CC)CCNC(=O)c1[nH]c2ccc(OCc3ccccc3)cc2c1C", "Potency": "inconclusive: 22.4 µM [inhibitor, partial curve]"},
      {"compound": "CCOc1cc(S(=O)(=O)N2CCC(Cc3ccccc3)CC2)c(OCC)cc1-n1cnnn1", "Potency": "inconclusive: 25.1 µM [inhibitor, partial curve]"},
      {"compound": "Cc1onc(-c2c(Cl)cccc2Cl)c1C(=O)NC(=S)Nc1sc2c(c1C(N)=O)CCC(C)C2", "note": "(stereo not given)", "activity change, negative = inhibition": "inactive: -1.13%"},
      {"compound": "O=C(c1ccc2c(c1)OCCO2)N1CCN(c2ccc([N+](=O)[O-])cc2)CC1", "activity change, negative = inhibition": "inactive: -1.47%"},
      {"compound": "O=c1cc(CO)oc(CN2CCC(Cc3ccccc3)CC2)c1O", "Potency": "inconclusive: 25.1 µM [inhibitor, single point]"},
      {"compound": "O=C(O)c1cnc(-c2ccccc2)nc1Sc1cccc(Cl)c1", "activity change, negative = inhibition": "inactive: 6.76%"},
      {"compound": "Cc1ccc(-n2c(SCC(N)=O)nnc2-c2ccc(S(=O)(=O)N3CCCCC3)cc2)c(C)c1", "Potency": "inconclusive: 39.8 µM [inhibitor, single point]"},
      {"compound": "O=C(CN1C(=O)c2cccc3cccc(c23)C1=O)N1CCCCCC1", "Potency": "inconclusive: 28.2 µM [inhibitor, partial curve]"},
      {"compound": "CC1=CC(c2ccccc2)n2nnnc2N1", "note": "(stereo not given)", "Potency": "inconclusive: 31.6 µM [inhibitor, single point]"},
      {"compound": "S=C(Nc1ccc(Br)cc1Cl)Nn1cnnc1", "activity change, negative = inhibition": "inactive: 0.222%"},
      {"compound": "CCOC(=O)c1ccc(N2CCN(c3ccccc3F)CC2)c(NC(=O)Nc2cccc(OC)c2)c1", "Potency": "inconclusive: 28.2 µM [inhibitor, partial curve]"},
      {"compound": "COc1ccc(-c2cc3nc(C)c(CCC(=O)NCc4ccc(F)cc4)c(C)n3n2)c(OC)c1", "Potency": "inconclusive: 28.2 µM [inhibitor, partial curve]"},
      {"compound": "COc1ccccc1-c1cc(C(F)(F)F)nc(S(=O)(=O)CCCC(=O)NCc2ccc(F)cc2)n1", "Potency": "inconclusive: 31.6 µM [inhibitor, partial curve]"},
      {"compound": "Cc1cccc(N2CCN(Cc3nc(-c4cccc(Oc5ccccc5)c4)oc3C)CC2)n1", "Potency": "inconclusive: 39.8 µM [inhibitor, single point]"},
      {"compound": "CCN(CC)CCCNc1nc(C)cc(COC)c1C#N", "Potency": "inconclusive: 28.2 µM [inhibitor, partial curve]"},
      {"compound": "O=C(OCC(F)(F)F)[C@H](O)[C@@H](O)C(=O)OCC(F)(F)F", "activity change, negative = inhibition": "inactive: 5.24%"},
      {"compound": "COc1ccc(/C=C/c2cc(OC)c(OC)cc2CC[N+](C)(C)C)cc1", "Potency": "inconclusive: 35.5 µM [inhibitor, partial curve]"},
      {"compound": "O=C(O)CNC(=O)c1nc(-c2ccccc2)n(-c2ccccc2)n1", "activity change, negative = inhibition": "inactive: 2.09%"},
      {"compound": "O=C(NCCCN1CCCC1)Nc1cccc2ccccc12", "Potency": "inconclusive: 25.1 µM [inhibitor, partial curve]"},
      {"compound": "COc1ccccc1C(=O)Nc1nc2ccc(S(C)(=O)=O)cc2s1", "Potency": "inconclusive: 25.1 µM [inhibitor, partial curve]"},
      {"compound": "CC(=O)NC(c1ccc(Cl)cc1)c1c(O)ccc2ccc(O)cc12", "note": "(stereo not given)", "Potency": "inconclusive: 25.1 µM [inhibitor, single point]"},
      {"compound": "CC(C)=CCOc1ccc2ccc(=O)oc2c1", "Potency": "inconclusive: 28.2 µM [inhibitor, partial curve]"},
      {"compound": "COc1ccc(CCNC(=O)CCCCn2c(=O)[nH]c3ccccc3c2=O)cc1OC", "activity change, negative = inhibition": "inactive: 3.97%"},
      {"compound": "CC1CCCCN1C(=S)Nc1ccc2nc3n(c(=O)c2c1)CCCCC3", "note": "(stereo not given)", "Potency": "inconclusive: 25.1 µM [inhibitor, partial curve]"},
      {"compound": "O=C(c1cc(N2CCCCC2)nc2ccccc12)N1CCOCC1", "Potency": "inconclusive: 31.6 µM [inhibitor, single point]"},
      {"compound": "O=C1CCCC(O)=C1N=Nc1ccc(C(=O)O)cc1", "Potency": "inconclusive: 39.8 µM [inhibitor, single point]"},
      {"compound": "N#Cc1ccccc1OCCOCCNC1CCCC1", "Potency": "inconclusive: 22.4 µM [inhibitor, single point]"},
      {"compound": "COC(=O)c1ccc(Cn2cnc3c(cnn3-c3ccc(C)c(C)c3)c2=O)o1", "Potency": "inconclusive: 39.8 µM [inhibitor, single point]"}
    ]}
  ]
}
